In PubChem BioAssay AID1030 (National Center for Advancing Translational Sciences (NCATS), 2008):
The whole screen tested about 220,000 compounds, of which about 16,000 (7.3%) were called active. The shares of active, inactive and inconclusive entries below differ from those in the screen. Calls come from the whole dose curve; as a rule, active = well fitted inhibition curve with a large enough effect (not every such curve was filed as active); inconclusive = small, poorly fitted or top-dose-only effect, or another doubt; inactive = no such curve, though single readings can be large or run the other way. Potencies of inconclusive entries are left out as doubtful fits.

biological target: Aldehyde dehydrogenase 1A1 (Homo sapiens) (UniProt P00352); experiment: qHTS Assay for Inhibitors of Aldehyde Dehydrogenase 1 (ALDH1A1); details: Purified ALDH1A1, NADH fluorescence, propionaldehyde substrate; series mostly up to 75.3 µM; activity, negative = inhibition: at the top concentration;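 for activity, negative = inhibition: plate controls were no enzyme wells and a reference inhibitor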
Sequence of UniProt P00352 (P00352 whole entry, looked up): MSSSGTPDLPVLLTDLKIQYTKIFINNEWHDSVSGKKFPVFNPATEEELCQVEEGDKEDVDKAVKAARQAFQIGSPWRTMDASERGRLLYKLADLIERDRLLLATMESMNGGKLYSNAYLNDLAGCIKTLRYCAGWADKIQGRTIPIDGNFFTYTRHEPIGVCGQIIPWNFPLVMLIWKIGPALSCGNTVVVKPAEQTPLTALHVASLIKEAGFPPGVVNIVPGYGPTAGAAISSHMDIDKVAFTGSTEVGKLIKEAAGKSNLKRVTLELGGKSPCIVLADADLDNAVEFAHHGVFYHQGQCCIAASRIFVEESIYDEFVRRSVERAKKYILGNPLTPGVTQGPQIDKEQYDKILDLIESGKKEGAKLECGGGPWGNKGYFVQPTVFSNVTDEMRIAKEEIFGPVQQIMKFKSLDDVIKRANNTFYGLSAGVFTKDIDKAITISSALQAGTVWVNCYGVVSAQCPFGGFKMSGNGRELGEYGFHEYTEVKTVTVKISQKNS
Potency is the fitted concentration of half-maximal effect; tags give direction and shape of the fitted curve.

Compound	Potency	activity, negative = inhibition
O=S(=O)(Nc1cccc(Cl)c1)c1ccc2oc(=S)[nH]c2c1	active: 1 µM	–
Cc1cc2nc(CCN(C(=S)NCC(C)C)C3CCCC3)[nH]c2cc1C	–	inactive: -15.9%
CCn1c2ccccc2c2cc(NC(=O)c3cccc(OC)c3)ccc21	inconclusive [inhibitor, single point]	–
COc1ccc(CNC(=O)c2cc(-c3cccs3)on2)cc1	–	inactive: -15.1%
CCOC(=O)c1cc(C(=O)c2ccccc2O)cn2c(=O)c3c(C)c(C)sc3nc12	active: 14.1 µM	–
CC(=O)Nc1ccc(C)c(NS(=O)(=O)c2cccc(C(F)(F)F)c2)c1	–	inactive: 5.45%
COc1ccc(CCNC(=S)N2CCC(Cc3ccccc3)CC2)cc1OC	inconclusive [inhibitor, single point]	–
Cc1ccc(C(=O)NCc2ccco2)cc1Br	inconclusive [inhibitor, single point]	–
O=C(O)Cc1cn(Cc2cccc(Cl)c2)c2ccccc12	inconclusive [inhibitor, single point]	–
CC(=O)N1CCC2(CCCN(c3ccccn3)C2)CC1	inconclusive [inhibitor, single point]	–
NC(=O)[C@@H]1CCCNc2c(I)cc([N+](=O)[O-])cc2C(=O)N[C@@H](CO)C(=O)N[C@@H](Cc2ccc(O)cc2)C(=O)N1	–	inactive: -3.33%
C=C(C)[C@@H]1CC=C(CN2CCC(CCOC)(C(=O)OCC)CC2)CC1	–	inactive: -0.881%
N#C[C@H](Cc1ccc(O)cc1)c1ccc(O)cc1	inconclusive [inhibitor, single point]	–
Cc1cc2c(cc1C)/C(=C\C(N)=O)NC(C)(C)C2	–	inactive: -0.974%
COc1ccc(NC(=O)N2CC3(CCN(C(=O)c4ccc(OC)cc4)CC3)C2)cc1	–	inactive: -6%
Cc1ccc(-c2nnn(CC(=O)N(CC(=O)NCc3ccccc3)c3cccc(C)c3C)n2)o1	active: 10 µM	–
CCOC(=O)N1CCC(NC(=O)CS(=O)Cc2nc(-c3ccc(OC)c(OC)c3)oc2C)CC1 (stereo unspecified)	inconclusive [inhibitor, single point]	–
CC(C)[C@H](CO)Nc1nc(Nc2ccc(C(=O)O)c(Cl)c2)c2ncn(C(C)C)c2n1	inconclusive [inhibitor, single point]	–
O=C1N/C(=C/c2cccn2-c2ccccc2)C(=O)N1Cc1ccccc1F	inconclusive [inhibitor, partial curve]	–
Cc1ccc(-c2cc(C(F)F)nc(NCc3cccnc3)n2)cc1	inconclusive [inhibitor, single point]	–
CCc1nn(CC(=O)Nc2cc(C)ccc2C)c(=N)s1	–	inactive: -3.22%
Cc1cc([N+](=O)[O-])ccc1NC(=O)/C=C/c1cccs1	inconclusive [inhibitor, single point]	–
CC(C)=C1SC(N2CCN(c3cccc(Cl)c3)CC2)=NC1=O	inconclusive [inhibitor, single point]	–

Compound	Potency	activity, negative = inhibition
O=c1[nH]c2cc3c(cc2cc1C(c1nnnn1CC1CCCO1)N1CCCC1)OCO3 (stereo unspecified)	inconclusive [inhibitor, partial curve]	–
C/C=C/c1ccc(OCCOc2ccc(C=O)cc2)c(OC)c1	inconclusive [inhibitor, single point]	–
COC(=O)c1[nH]c2cccc(C)c2c1NC(=O)CN1CCN(C(=O)c2ccco2)CC1	inconclusive [inhibitor, partial curve]	–
CC(O)c1c(OCc2ccccc2)ncnc1OCc1ccccc1 (stereo unspecified)	inconclusive [inhibitor, partial curve]	–
CC(C)CNC(=O)COC(=O)c1cc(S(=O)(=O)N(C)C)ccc1N1CCCC1	inconclusive [inhibitor, single point]	–
N#Cc1c(NC(=S)NC(=O)C2CCCC2)sc2c1CCCCC2	active: 10 µM	–
COc1ccccc1N1CCN(C(=O)c2cc(C)oc2C)CC1	inconclusive [inhibitor, single point]	–
COc1cccc(-c2cncnc2NCc2cnc(C)cn2)c1	–	inactive: 6.89%
CC(=O)c1cccc(NC(=O)CN2C(=O)C3C4C=CC(C4)C3C2=O)c1 (stereo unspecified)	inconclusive [inhibitor, single point]	–
COc1ccc(C(=O)c2ccccc2)c(O)c1O	–	inactive: -3.38%
CN(C)c1ccc(NC(=O)C2CCCN(S(=O)(=O)c3ccccc3)C2)cc1 (stereo unspecified)	inconclusive [inhibitor, single point]	–
COc1ccc(C(=O)N2CCN(C(=O)c3cc(OC)c(OC)c(OC)c3)CC2)cc1	active: 14.1 µM	–
COc1cccc(Nc2nc(-c3sc(NC(=O)CC(C)C)nc3C)cs2)c1	inconclusive [inhibitor, single point]	–
Cc1nc2c(ccc3nc(NC(=O)C(c4ccccc4)c4ccccc4)sc32)s1	–	inactive: 6.11%
Cc1cc(C)cc(C(=O)NCCn2cc(SCC(=O)N3CCOCC3)c3ccccc32)c1	inconclusive [inhibitor, single point]	–
Cn1c(=N)c(S(=O)(=O)c2ccccc2)cc2c(=O)n3ccccc3nc21	inconclusive [inhibitor, partial curve]	–
Cn1cccc1C(=O)Nc1nc(-c2ccccn2)cs1	active: 14.1 µM	–
Cc1ccc2nc(Cn3cc(C(F)(F)F)cc(Cl)c3=O)cc(=O)n2c1	inconclusive [inhibitor, single point]	–
CC1CCCCN1C(=O)Cn1cnc2cc([N+](=O)[O-])ccc2c1=O (stereo unspecified)	inconclusive [inhibitor, single point]	–
Cc1nc(N2CCC(C)CC2)c2c(C)c(C(=O)Nc3ccc(C(F)(F)F)cc3)sc2n1	inconclusive [inhibitor, partial curve]	–
O=C(CNc1ccc(Br)cc1)c1ccccc1	active: 20 µM	–
CC(=O)N(C)c1ccc(NC(=S)Nc2cccc3ccccc23)cc1	inconclusive [inhibitor, partial curve]	–
C=CCOC(=O)C1=C[C@H](c2cn(C(C)=O)c3ccccc23)C[C@H](OCc2ccc(CO)cc2)O1	–	inactive: -9.41%
